{
  "source": "PubChem BioAssay AID2546",
  "about": "(National Center for Advancing Translational Sciences (NCATS), 2010)",
  "note": "The whole screen tested about 310,000 compounds, of which about 11,000 (3.5%) were called active. Inconclusive results, whose numbers are uncertain, are shown with a selection of clear calls. The call rests on the fitted dose curve; in most records, active means well fitted inhibition curve with a large enough effect; inconclusive means small, poorly fitted or top-dose-only effect, or effect the other way; inactive means flat fitted curve, though single readings scatter. Potencies of inconclusive entries are left out as doubtful fits. On the % scale 0 is the no-effect control and ±100 the full control effect; potency means the concentration at half of the fitted maximal effect; tags describe the fitted curve by direction and shape.",
  "data": [
    {"test": "VP16 counterscreen qHTS for inhibitors of ROR gamma transcriptional activity;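 further: Gal4-VP16 expression switched on by copper sulfate through the metallothionein promoter; nearly all actives have a fitted effect of over 50% in size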", "conditions": "Drosophila S2 Gal4-VP16 UAS-luciferase, luminescence, 20 h; activity, negative = inhibition: at 53.6 µM (top of the series)", "values": [
      {"smiles": "Cc1cc2ncn(/N=C/c3ccc4c(c3)OCO4)c2cc1C", "Potency": "inconclusive [inhibitor, full curve, poor fit]"},
      {"smiles": "COc1ccccc1NC(=S)NCc1ccc(F)cc1", "Potency": "inconclusive [inhibitor, single point]"},
      {"smiles": "COc1ccc(/C=N/Nc2ncnc(Cl)c2N)cc1OC", "Potency": "inconclusive [inhibitor, single point]"},
      {"smiles": "CCCCOc1ccc(C(=O)CCN2CCCCC2)cc1", "Potency": "active: 14.1 µM"},
      {"smiles": "CCCc1ccc(OCc2ccc(C(=O)N/N=C/c3cccc([N+](=O)[O-])c3)o2)c(OC)c1", "Potency": "inconclusive [inhibitor, partial curve]"},
      {"smiles": "CSc1ccc(C(=O)C2CCCN(C(=O)c3nn(C)c(=O)c4ccccc34)C2)cc1", "note": "(centres undefined)", "activity, negative = inhibition": "inactive: 4.18%"},
      {"smiles": "COc1cccc(C(=O)NNC2=C(C(=O)C(F)(F)F)CCC2)c1", "Potency": "inconclusive [inhibitor, single point]"},
      {"smiles": "Cc1ccc(C(=O)N2c3ccccc3N(Cc3ccccc3)C(=O)C2(C)C)cc1", "Potency": "inconclusive [inhibitor, single point]"},
      {"smiles": "COc1ncnc2sc(-c3ccccc3)cc12", "activity, negative = inhibition": "inactive: -0.692%"},
      {"smiles": "Cc1ccccc1NC(=O)CN1C(=O)CSc2ccc(S(=O)(=O)N3CCCC3)cc21", "activity, negative = inhibition": "inactive: -8.25%"},
      {"smiles": "Cn1c(=O)c2c(ncn2CC(COCc2ccc(Cl)cc2)OCc2ccc(Cl)cc2)n(C)c1=O", "note": "(centres undefined)", "Potency": "inconclusive [inhibitor, single point]"},
      {"smiles": "C=CCNc1nc(Cl)nc(Nc2ccc([N+](=O)[O-])cc2)n1", "activity, negative = inhibition": "inactive: 2.79%"},
      {"smiles": "O=C(Nc1nnc(-c2ccccc2Cl)o1)c1cccnc1", "Potency": "active: 1.26 µM"},
      {"smiles": "CCn1ncc(Br)c1C(=O)Nc1ccc(C(C)C)cc1", "activity, negative = inhibition": "inactive: 4.88%"},
      {"smiles": "O=[N+]([O-])c1ccc(OCC(O)CN2CCN(c3ccccc3F)CC2)cc1", "note": "(centres undefined)", "Potency": "inconclusive [inhibitor, single point]"},
      {"smiles": "COC(=O)c1ccc(NC(=S)NN2CCOCC2)cc1", "activity, negative = inhibition": "inactive: -5.05%"},
      {"smiles": "Cc1ccc([C@H]2C(C#N)=C(N)Oc3cc(C)oc(=O)c32)o1", "Potency": "inconclusive [inhibitor, single point]"},
      {"smiles": "CCOCCCNC(=O)CN1C(=O)/C(=C\\c2ccc(C)cc2)Sc2ccccc21", "activity, negative = inhibition": "inactive: 24.6%"},
      {"smiles": "Nc1nc(NCC2CCC(CNS(=O)(=O)c3cccc4ccccc34)CC2)nc2ccccc12", "note": "(centres undefined)", "Potency": "inconclusive [inhibitor, single point]"},
      {"smiles": "CC(C)(C)c1cc(-n2ccnc2)n2ncc(-c3ccc(Cl)cc3)c2n1", "Potency": "inconclusive [inhibitor, single point]"},
      {"smiles": "CCOC(=O)C(C(=O)OCC)C(C(=O)OCC)N1CCOCC1", "note": "(centres undefined)", "Potency": "active: 5.62 µM"},
      {"smiles": "O=C1CN(c2nc(-c3ccccc3)c3ccccc3n2)c2ccccc2N1", "Potency": "inconclusive [inhibitor, single point]"},
      {"smiles": "O=C(O)c1sccc1S(=O)(=O)Nc1ccc(Cl)cc1", "activity, negative = inhibition": "inactive: -4.9%"},
      {"smiles": "O=C1/C(=C\\c2ccc(O)c(O)c2)Oc2cc(O)ccc21", "Potency": "inconclusive [inhibitor, partial curve]"},
      {"smiles": "CCc1ccccc1NCC(=O)Nc1ccc(Cl)c(C(F)(F)F)c1", "Potency": "inconclusive [inhibitor, partial curve]"},
      {"smiles": "COCCCn1c(SCc2ccccc2)nc2cc(OC)c(OC)cc2c1=N", "Potency": "inconclusive [inhibitor, single point]"},
      {"smiles": "CN(C)c1ccc(/C=N/NC(=O)c2sccc2-n2cccc2)cc1", "Potency": "inconclusive [inhibitor, single point]"},
      {"smiles": "COc1ccc(-c2cn3ccccc3n2)cc1OC", "activity, negative = inhibition": "inactive: -16.1%"},
      {"smiles": "Cc1ccc(S(=O)(=O)NCCC(=O)Nc2cccc(Cl)c2)cc1", "activity, negative = inhibition": "inactive: 1.65%"},
      {"smiles": "Cc1ccc(/C=N/N=C2/NC(=O)C(CC(=O)Nc3ccccc3)S2)o1", "note": "(centres undefined)", "activity, negative = inhibition": "inactive: -4.95% [at 10 µM]"},
      {"smiles": "O=C(CCc1nc2ccccc2c(=O)[nH]1)OCC(=O)N1CCc2ccccc21", "activity, negative = inhibition": "inactive: -5.01%"},
      {"smiles": "NC(=O)c1ccc(NCc2ccco2)c([N+](=O)[O-])c1", "activity, negative = inhibition": "inactive: -0.112%"},
      {"smiles": "Cc1ccc(/C=C2\\SC(=S)N(CCCC(=O)Nc3ccccn3)C2=O)cc1", "Potency": "active: 1.58 µM"},
      {"smiles": "CCOC(=O)c1cnc(SCCN2CCOCC2)nc1N", "activity, negative = inhibition": "inactive: -9.16%"},
      {"smiles": "COc1cc(NC(=O)c2ccccc2NS(=O)(=O)c2ccc(Cl)s2)cc(OC)c1", "Potency": "inconclusive [inhibitor, single point]"},
      {"smiles": "Cc1c(C(=O)Nc2nonc2-c2ccc(F)cc2)oc2ccc(F)cc12", "Potency": "inconclusive [inhibitor, single point]"},
      {"smiles": "Cc1cc(N2CCC(C)CC2)n2ncc(-c3ccccc3)c2n1", "Potency": "inconclusive [inhibitor, single point]"},
      {"smiles": "O=C(Nc1ccc(-c2cccc(F)c2)cc1)C1CCCN(Cc2ccccn2)C1", "note": "(centres undefined)", "Potency": "active: 11.2 µM"},
      {"smiles": "Cc1cccc(NC(=S)NCCc2ccc3c(c2)OCCO3)c1C", "Potency": "inconclusive [inhibitor, single point]"},
      {"smiles": "CCCC(=O)NC(c1ccc(OC)cc1)c1ccc2cccnc2c1O", "note": "(centres undefined)", "Potency": "active: 4.47 µM"},
      {"smiles": "O=C(Cn1cc(Cl)ccc1=O)c1ccc(Cl)cc1", "Potency": "inconclusive [activator, single point]"},
      {"smiles": "Cc1c2ccccc2nc2c(F)c(NC(C)C)c(F)c(F)c12", "Potency": "inconclusive [activator, single point]"},
      {"smiles": "COc1ccc(NC(=O)c2cc(CN3C(=O)c4ccccc4C3=O)ccc2OC)cn1", "Potency": "inconclusive [inhibitor, single point]"},
      {"smiles": "Cc1c(C#N)c(N)nc2c3c(sc12)NC(=O)CC3c1ccc(Cl)cc1", "note": "(centres undefined)", "Potency": "inconclusive [inhibitor, single point]"},
      {"smiles": "Cc1csc(NC(=O)c2cc3c(C)nn(Cc4ccccc4Cl)c3s2)n1", "Potency": "inconclusive [inhibitor, single point]"},
      {"smiles": "CC(=O)N1CC[n+]2c(-c3ccc(Cl)cc3)csc21", "activity, negative = inhibition": "inactive: 2.5%"},
      {"smiles": "CCCCCCC(=O)N1C/C=C\\C(c2ccc(OC)cc2)N(Cc2ccc(F)cc2)C(=O)[C@H]1Cc1ccccc1", "note": "(some centres undefined)", "Potency": "inconclusive [inhibitor, single point]"},
      {"smiles": "Cc1ccc(NC(=O)CSc2nn(-c3ccccc3)c(=S)s2)cc1S(=O)(=O)N(C)C", "Potency": "active: 14.1 µM"},
      {"smiles": "CSc1c(CC(=O)Nc2ccccc2)n(Cc2ccccc2)c2ccccc12", "Potency": "inconclusive [inhibitor, single point]"},
      {"smiles": "CCc1ccc(S(=O)(=O)NCc2cn3cccc(C)c3n2)s1", "Potency": "inconclusive [inhibitor, single point]"},
      {"smiles": "CCOc1cc(/C=C(\\C#N)C(N)=O)ccc1OS(=O)(=O)c1ccccc1", "Potency": "inconclusive [inhibitor, single point]"},
      {"smiles": "Clc1ccc2c(c1)C(c1cccs1)=NNC(c1cccnc1)=N2", "activity, negative = inhibition": "inactive: -0.39%"},
      {"smiles": "Cc1sc(-c2ccncc2)nc1OC(=O)c1cc(Cl)cc(Cl)c1", "Potency": "inconclusive [inhibitor, single point]"},
      {"smiles": "CC(=O)OCC1OC(C#Cc2ccc(F)cc2F)C=CC1OC(C)=O", "note": "(centres undefined)", "Potency": "inconclusive [inhibitor, single point]"},
      {"smiles": "O=C(N/N=C/c1cnc(N2CCCCC2)s1)c1ccc(Cl)cc1", "Potency": "inconclusive [inhibitor, single point]"},
      {"smiles": "COCc1c(C(=O)OCC(=O)NCCN2C(=O)CSC2=O)oc2ccccc12", "Potency": "inconclusive [activator, single point]"},
      {"smiles": "Oc1c(Br)cc(Br)cc1CNc1cccc2cccnc12", "Potency": "active: 8.91 µM"},
      {"smiles": "CC(C)(C)c1cc(C(=O)CCN2CCOCC2)cc(C(C)(C)C)c1O", "Potency": "inconclusive [inhibitor, single point]"},
      {"smiles": "NC(=O)SCC(=O)Nc1cccc(Cl)c1", "Potency": "inconclusive [inhibitor, single point]"},
      {"smiles": "OCC1(Cc2ccc(F)cc2F)CCCN(CCCc2ccccc2)C1", "note": "(centres undefined)", "activity, negative = inhibition": "inactive: -8.46%"},
      {"smiles": "CCOc1ccc(NS(=O)(=O)c2cc(NC(=O)c3ccc(C)cc3)ccc2Cl)cc1", "activity, negative = inhibition": "inactive: -17%"},
      {"smiles": "Cc1cccc(C)c1NC(=O)C(c1ccc(Cl)cc1Cl)N1CCCCC1", "note": "(centres undefined)", "activity, negative = inhibition": "inactive: -7.5%"},
      {"smiles": "Cc1ccc(C2=Nc3ccccc3N=C(c3ccc([N+](=O)[O-])cc3)C2)c(O)c1", "Potency": "inconclusive [activator, single point]"},
      {"smiles": "CN1CCN(Cc2cc(Cl)c3cccnc3c2OC(=O)c2cccs2)CC1", "Potency": "active: 12.6 µM"},
      {"smiles": "COc1ccc(C(=O)Nc2cccc(C(C)=O)c2)cc1OC", "Potency": "inconclusive [activator, partial curve, poor fit]"},
      {"smiles": "COc1ccc2nc(NC(=O)CSc3nc4ccccc4o3)sc2c1", "Potency": "inconclusive [inhibitor, partial curve]"},
      {"smiles": "COc1ccc(CCC(=O)NNC(=O)c2ccc(F)cc2)cc1", "activity, negative = inhibition": "inactive: -8.98%"},
      {"smiles": "CCC(C)[C@H](NC(=O)NCc1ccccc1Cl)C(=O)O", "note": "(some centres undefined)", "activity, negative = inhibition": "inactive: -3.38%"},
      {"smiles": "O=C1C(Cl)=C(N2CCOCC2)C(=O)N1c1cccc(Cl)c1", "Potency": "inconclusive [inhibitor, single point]"},
      {"smiles": "O=c1c(CCc2ccccc2)nc2cnc(N3CCNCC3)nc2n1CCc1ccccc1", "Potency": "inconclusive [inhibitor, single point]"},
      {"smiles": "Cc1ccc(S(=O)(=O)c2cc3c(=O)n4ccccc4nc3n(CC3CCCO3)c2=N)cc1C", "note": "(centres undefined)", "Potency": "inconclusive [inhibitor, full curve, poor fit]"},
      {"smiles": "CC1CCCN(S(=O)(=O)c2ccc(C(=O)Nc3sc4c(c3C(N)=O)CCN(C)C4)cc2)C1", "note": "(centres undefined)", "Potency": "inconclusive [inhibitor, single point]"},
      {"smiles": "Cc1ccc(-n2nc(C)c(C3C(C#N)=C(N)OC4=C3C(=O)CCC4)c2Cl)cc1", "note": "(centres undefined)", "activity, negative = inhibition": "inactive: 2.88%"},
      {"smiles": "O=C(NCCCc1ccccc1)c1ccncc1", "Potency": "inconclusive [inhibitor, single point]"}
    ]}
  ]
}
